The list shows a part of the results. At the low end of the ranking the order means little.

The test concerns the target T1, ETS1 (UniProt P14921).
T1 sequence: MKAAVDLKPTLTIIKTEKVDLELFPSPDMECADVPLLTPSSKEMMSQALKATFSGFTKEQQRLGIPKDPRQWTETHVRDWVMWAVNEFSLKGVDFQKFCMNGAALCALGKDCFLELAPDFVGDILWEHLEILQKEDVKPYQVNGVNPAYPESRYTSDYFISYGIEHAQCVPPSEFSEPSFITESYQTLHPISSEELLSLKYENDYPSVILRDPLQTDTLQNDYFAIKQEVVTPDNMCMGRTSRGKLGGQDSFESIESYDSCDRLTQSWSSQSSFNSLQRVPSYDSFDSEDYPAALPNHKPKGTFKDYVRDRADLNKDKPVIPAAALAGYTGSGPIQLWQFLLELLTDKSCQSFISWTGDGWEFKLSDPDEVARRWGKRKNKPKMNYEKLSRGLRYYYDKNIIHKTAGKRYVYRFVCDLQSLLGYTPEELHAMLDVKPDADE
In words: custom PBM. The conditions noted are these: custom protein-binding microarray; buffer, salt, pH and temperature not stated; high values mean tight binding; double strand, one strand shown.
Turning to “TACTGACTTATATATGCGAATGCACATGAATAGTCCGTCTTGATTCGCTTGACGCTGCTG”, the binding signal (log fluorescence intensity) turned out to be 8.18.

“TAAAGGGAAGACGGTTGTGGTAGATCCGGGTATTAAGTCTTGATTCGCTTGACGCTGCTG”: the binding signal (log fluorescence intensity) was 8.33. Turning to “GGAAAAAGGCCCAGGGTAACACCTGAAGTGGGCTTAGTCTTGATTCGCTTGACGCTGCTG”, the binding signal (log fluorescence intensity) was 8.36. In the case of “CAGCATAGGACTTCATCCCTGAAGCAATTGATAACCGTCTTGATTCGCTTGACGCTGCTG”, the binding signal (log fluorescence intensity) is 8.2. Under “TAAAGGGAAGACGGTTGTGGTAGTTCCGGGTTTTAAGTCTTGATTCGCTTGACGCTGCTG” stands 8.53. Under “TCCGGCTACCAGCTCCAACCACTTCAGGCCTTGTAGGTCTTGATTCGCTTGACGCTGCTG” stands 8.36; under “CACAATTTTTACAGTAATGTAGCACGTGTAACTCCTGTCTTGATTCGCTTGACGCTGCTG”, 8.24; under “GCTGCTGCGGTGCATACCCCACCGTATGTGACCCCGGTCTTGATTCGCTTGACGCTGCTG”, 8.23. Under “GTGTATAGGATCCCATCCAACACACGTGTGAAAATGGTCTTGATTCGCTTGACGCTGCTG” stands 8.27; under “CACAATTTTGACAGTAATGTAGCACGCGTAACTCCTGTCTTGATTCGCTTGACGCTGCTG”, 8.09; under “TACTGACTTATATATGCGAATGCACATGAAAAGACCGTCTTGATTCGCTTGACGCTGCTG”, 8.2. Consider “GTGTATAGGATCCCATCCAACACACGTGTTAAAATTGTCTTGATTCGCTTGACGCTGCTG”, for which the binding signal (log fluorescence intensity) turned out to be 8.32. Take “CACAACTTTTACAGTAATGTAGCACGCGTAACTCCTGTCTTGATTCGCTTGACGCTGCTG”: the binding signal (log fluorescence intensity) worked out at 8.25. Under “AAAAGGGAAGACGGTTGTGGTAGTTCCGGGTATTAAGTCTTGATTCGCTTGACGCTGCTG” stands 8.59; under “CGAAAGTGTCGTAAACGTCGGATATCCGGTTCTTCTGTCTTGATTCGCTTGACGCTGCTG”, 11.9; under “TACGGACTTATATATGCGAATGCACATGAATAGACCGTCTTGATTCGCTTGACGCTGCTG”, 8.01. Under “CGTAAGTGTCGTAAACGTCGGATATCCGGTTCTTCTGTCTTGATTCGCTTGACGCTGCTG” stands 12; under “CGGAAGTGTCGTTAACGTCGGATATCCGGTTCTTCTGTCTTGATTCGCTTGACGCTGCTG”, 12. For the sequence “CACAATTTCTACAGTAATGTAGCACGCGTAACTCCTGTCTTGATTCGCTTGACGCTGCTG”, the binding signal (log fluorescence intensity) turned out to be 8.23. Under “CAAAATTTTTACAGTAATGTAGCACGCGTAACTCCTGTCTTGATTCGCTTGACGCTGCTG” stands 8.29; under “CAGCATAGGACTTCTTCCCTGAAGCAATAGATAACCGTCTTGATTCGCTTGACGCTGCTG”, 8.12; under “TGTCGGGTAAGGGAATGTACATCACGTGAATGAAAAGTCTTGATTCGCTTGACGCTGCTG”, 8.18. Under “CAGCATAGGACTTCTTCGCTGAAGCAATTGATAACCGTCTTGATTCGCTTGACGCTGCTG” stands 8.29; under “CGGAAGTGTCGAAAACGTCGGATATCCGGTTCTTCTGTCTTGATTCGCTTGACGCTGCTG”, 12. Under “CTGGGACTTGACCCAACTCTGCCAAGTGGGTCGTTTGTCTTGATTCGCTTGACGCTGCTG” stands 8.19; under “TTGGGACTTGACCCAACTCTGCCACGTGGGTCGTTTGTCTTGATTCGCTTGACGCTGCTG”, 8.2. For “TTAAGGGAAGACGGTTGTGGTAGTTCCGGGTATTAAGTCTTGATTCGCTTGACGCTGCTG”, the binding signal (log fluorescence intensity) came to 8.48.

As to “GGAAATAGGCCCAGGGTAACACCGGAAGTGGGCTTAGTCTTGATTCGCTTGACGCTGCTG”, the binding signal (log fluorescence intensity) was determined as 12. Under “TCCGGCTACCAGCTCCACCCACTTCTGGCCTTGTAGGTCTTGATTCGCTTGACGCTGCTG” stands 8.26; under “CACAATTTTTACAGTAATGTAGCACGCTTAACTCCTGTCTTGATTCGCTTGACGCTGCTG”, 8.27; under “GTGTATAGAATCCCATCCAACACACGTGTTAAAATGGTCTTGATTCGCTTGACGCTGCTG”, 8.26. For “CGGAAGTGTCGTAAACGTCGGATATCCGGTCCTTCTGTCTTGATTCGCTTGACGCTGCTG” the value was 12.1; for “CTGGGACTTGACCCAACTCTTCCACGTGGGTCGTTTGTCTTGATTCGCTTGACGCTGCTG”, 8.23. Take “GATTAATTTCTGCCCTGATTCGCACGTGCCATAACAGTCTTGATTCGCTTGACGCTGCTG”: the binding signal (log fluorescence intensity) was 8.07. Under “GCTGCTGAGGTGCATACCCCACCGGATGTGACCCCGGTCTTGATTCGCTTGACGCTGCTG” stands 10.1; under “TCCGGCTACCAGCTGCACCCACTTCAGGCCTTGTAGGTCTTGATTCGCTTGACGCTGCTG”, 8.44; under “CAGCATAGGACTTCTTCCATGAAGCAATTGATAACCGTCTTGATTCGCTTGACGCTGCTG”, 8.31.

In the case of “CGGAAGTGTCGTAAACGTCGGAAATCCGGTTCTTCTGTCTTGATTCGCTTGACGCTGCTG”, the binding signal (log fluorescence intensity) was found to be 9.71. Under “CACAATTTTTACAGTAATGTAGCCCGCGTAACTCCTGTCTTGATTCGCTTGACGCTGCTG” stands 8.29; under “TCCCGCTACCAGCTCCACCCACTTCAGGCCTTGTAGGTCTTGATTCGCTTGACGCTGCTG”, 8.14; under “CTGGGACTTGACCCAACTCTGCCACGTGGGCCGTTTGTCTTGATTCGCTTGACGCTGCTG”, 8.02.

For the origin of these results see PMC6602471.
